The values below come from a collection of fitness landscapes (doi:10.1016/j.celrep.2020.107928).

The full ranking holds about 81,000 sequences; the median of “one-hybrid fitness for binding NBS DNA” is about -0.1, and the highest 2% start at about 0.36. The list shows a part of the results.

To fix the notation:
B1: Caulobacter ParB omega fusion; a variant is named by its letters at X, in order, B8GW30 (parent)
chain: MESVVVGEPGMSEGRRGLGRGLSALLGEVDAAPAQAPGEQLGGSREAPIEILQRNPDQPRRTFREEDLEDLSNSIREKGVLQPILVRPSPDTAGEYQIVAGERAWRAAQRAGLKTVPIMVRELDDLAVLEIGIIENVQRADLNVLEEALSYKVLMEKFERTQENIAQTIGKSXSHVANXMRLLXLPDEVQSYLVSGELTAXHARAIAAAADPVALAKQIIEGGLSVRETEALARKAPNLSAGKSKGGRPPRVKDTDTQALESDLSSVLGLDVSIDHRGSTGTLTITYATLEQLDDLCNRLTRGI

The variants in the experiment derive from B1. The experiment is described as follows: one-hybrid fitness for binding NBS DNA (the Noc-binding site; scaled: cognate 1, non-cognate 0); higher = stronger binding. Particulars: with NBS DNA site. The essentials: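 On M9-minus-histidine containing 0.1 mM IPTG and 5 mM 3-AT, E. coli USO cells with a HIS3 reporter, site 19 bp from the promoter, grew 48 hours at 37°C to select Caulobacter ParB libraries randomised at four specificity codons. Plasmids from before and after were Illumina-sequenced, with three replicate libraries pooled and variants under 10 reads left out. Fitness is the log change in variant-to-wild-type read ratio, rescaled against cognate and non-cognate.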
On to RHQI, for which the “one-hybrid fitness for binding NBS DNA” value is at most 0.2. With LGQS the figure was at most 0.2; with VFDC, at most 0.2. Next, DVMG: at most 0.2.

Take HMDV: the “one-hybrid fitness for binding NBS DNA” value is at most 0.2. Next, QWHR: 0.288. On to QKQF, for which the “one-hybrid fitness for binding NBS DNA” value is at most 0.2. With NHKE the figure was at most 0.2.

Regarding HNSI, the “one-hybrid fitness for binding NBS DNA” value was at most 0.2. Turning to PSDS, the “one-hybrid fitness for binding NBS DNA” value was at most 0.2. Next, AFYV: at most 0.2. With PLNH, the “one-hybrid fitness for binding NBS DNA” value was at most 0.2.

On to IYAI, for which the “one-hybrid fitness for binding NBS DNA” value is at most 0.2. Next, AVDT: at most 0.2. Regarding AGTL, the “one-hybrid fitness for binding NBS DNA” value is at most 0.2. Next, TYSS: at most 0.2. Next, EGKF: at most 0.2; NKKV: at most 0.2; KSRY: at most 0.2. With KRHA the figure was 0.357; with ANPT, at most 0.2; with GWTV, at most 0.2.

Regarding PGIL, the “one-hybrid fitness for binding NBS DNA” value was at most 0.2. In the case of MTPG, the “one-hybrid fitness for binding NBS DNA” value is at most 0.2. In the case of LVLY, the “one-hybrid fitness for binding NBS DNA” value is at most 0.2. For IWRG, the “one-hybrid fitness for binding NBS DNA” value is at most 0.2. With PNYN the figure was at most 0.2. As to WCWR, the “one-hybrid fitness for binding NBS DNA” value is at most 0.2.

For the variant HFVR, the “one-hybrid fitness for binding NBS DNA” value was at most 0.2. Next, RVEI: at most 0.2; RTVL: at most 0.2. Next, TTSR: at most 0.2. Next, QGYT: at most 0.2; PWVQ: at most 0.2. For the variant DKLT, the “one-hybrid fitness for binding NBS DNA” value is at most 0.2. With SDFT the figure was at most 0.2; with KYCS, at most 0.2; with ENIS, at most 0.2. For the variant DRKV, the “one-hybrid fitness for binding NBS DNA” value was at most 0.2. With QIQV the figure was at most 0.2. Next, MINC: at most 0.2. Next, LCHY: at most 0.2; AGRR: at most 0.2; QRDV: at most 0.2.

Consider AWVV, for which the “one-hybrid fitness for binding NBS DNA” value is at most 0.2. With ILGI the figure was at most 0.2; with LCLS, at most 0.2.

Take PKNP: the “one-hybrid fitness for binding NBS DNA” value is at most 0.2. In the case of VRVL, the “one-hybrid fitness for binding NBS DNA” value is at most 0.2. With SLWY the figure was at most 0.2.

On to QRHF, for which the “one-hybrid fitness for binding NBS DNA” value worked out at 0.347. With RAQV the figure was at most 0.2; with MQVF, at most 0.2.

AIAP: the “one-hybrid fitness for binding NBS DNA” value was at most 0.2.

For KEER, the “one-hybrid fitness for binding NBS DNA” value is at most 0.2. With IHDF the figure was at most 0.2; with RMHE, at most 0.2. Next, PETC: at most 0.2.

In the case of HVDL, the “one-hybrid fitness for binding NBS DNA” value is at most 0.2. YLMY: the “one-hybrid fitness for binding NBS DNA” value is at most 0.2. Next, SALS: at most 0.2; GPLG: at most 0.2; WAVC: at most 0.2. With SRAV the figure was at most 0.2; with SGTC, at most 0.2. As to QIET, the “one-hybrid fitness for binding NBS DNA” value was at most 0.2.

In the case of ITGW, the “one-hybrid fitness for binding NBS DNA” value was at most 0.2. Next, LGLL: at most 0.2; PWSC: at most 0.2; PQPH: at most 0.2. With IGYM the figure was at most 0.2; with RKIY, at most 0.2. With CVSE the figure was at most 0.2; with WINS, at most 0.2; with TCST, at most 0.2. In the case of RAPM, the “one-hybrid fitness for binding NBS DNA” value is at most 0.2. With VTWG the figure was at most 0.2; with IFNR, at most 0.2; with QDWL, at most 0.2. Regarding AGLF, the “one-hybrid fitness for binding NBS DNA” value was at most 0.2. On to LRCA, for which the “one-hybrid fitness for binding NBS DNA” value was at most 0.2. With FLSS the figure was at most 0.2. For WTRF, the “one-hybrid fitness for binding NBS DNA” value is at most 0.2.

For the variant ENNL, the “one-hybrid fitness for binding NBS DNA” value is at most 0.2. Next, RNCC: at most 0.2; LNCT: at most 0.2; SPCR: at most 0.2.

For the variant INTC, the “one-hybrid fitness for binding NBS DNA” value was at most 0.2. With MAMF the figure was at most 0.2; with TAMR, at most 0.2. With TLDT the figure was at most 0.2; with HCVL, at most 0.2. With EMQM the figure was at most 0.2; with PHCM, at most 0.2. Consider ISAH, for which the “one-hybrid fitness for binding NBS DNA” value is at most 0.2. On to RWTQ, for which the “one-hybrid fitness for binding NBS DNA” value is at most 0.2. Next, LPGR: at most 0.2. Take GLRM: the “one-hybrid fitness for binding NBS DNA” value was at most 0.2. Next, QDQR: at most 0.2. Take LWED: the “one-hybrid fitness for binding NBS DNA” value is at most 0.2. Next, LAAD: at most 0.2; LLTF: at most 0.2. With AVMI the figure was at most 0.2; with QHNR, 0.618. With NYWW the figure was at most 0.2. Regarding HSQR, the “one-hybrid fitness for binding NBS DNA” value was at most 0.2. CARC: the “one-hybrid fitness for binding NBS DNA” value is at most 0.2.

In the case of SSQY, the “one-hybrid fitness for binding NBS DNA” value is at most 0.2. With EKPC the figure was at most 0.2. On to WCSN, for which the “one-hybrid fitness for binding NBS DNA” value was at most 0.2. Next, CWPD: at most 0.2; SRKL: at most 0.2.

For QQIM, the “one-hybrid fitness for binding NBS DNA” value is at most 0.2. Next, NHCT: at most 0.2. With QHHC the figure was at most 0.2; with GQLS, at most 0.2. With HHLV the figure was at most 0.2; with GGDC, at most 0.2.

On to SYCR, for which the “one-hybrid fitness for binding NBS DNA” value was at most 0.2. With RFCG the figure was at most 0.2; with EEQS, at most 0.2.

As for DLNC, the “one-hybrid fitness for binding NBS DNA” value was at most 0.2. With FDDR the figure was at most 0.2. Next, FATS: at most 0.2; TSAT: at most 0.2. With KSTW the figure was at most 0.2.

As to RIDY, the “one-hybrid fitness for binding NBS DNA” value was at most 0.2. Next, IKAI: at most 0.2; FETL: at most 0.2; HMRR: at most 0.2. On to NCSK, for which the “one-hybrid fitness for binding NBS DNA” value was at most 0.2. Next, LPFR: at most 0.2; RDMD: at most 0.2; KRHG: at most 0.2. On to SFRY, for which the “one-hybrid fitness for binding NBS DNA” value is at most 0.2. Turning to QPLR, the “one-hybrid fitness for binding NBS DNA” value is at most 0.2. Next, RIWR: 0.367; CQNR: at most 0.2; CECG: at most 0.2. With QIRY the figure was 0.378; with THVQ, at most 0.2. Next, HRVI: at most 0.2. For the variant KTSF, the “one-hybrid fitness for binding NBS DNA” value was at most 0.2. With EAKN the figure was at most 0.2; with LPLR, at most 0.2. Next, LPER: at most 0.2. As for RSGP, the “one-hybrid fitness for binding NBS DNA” value is at most 0.2. Turning to AIRM, the “one-hybrid fitness for binding NBS DNA” value was at most 0.2.

Regarding MHWM, the “one-hybrid fitness for binding NBS DNA” value was at most 0.2. On to CQPN, for which the “one-hybrid fitness for binding NBS DNA” value was at most 0.2. Next, YIVR: at most 0.2; PRRQ: at most 0.2. With GCNR the figure was at most 0.2.
